Results published in patent US20210070829A1 (ZHEJIANG DOER BIOLOGICS, published 2021).
Where two headings read alike, the source gives them in different places.

Key:
Assay in all cases: cell-based or functional assay
human GLP-1 receptor [1] = target: T1, human GLP-1 receptor (human, UniProt P43220 24-463)
[2] = target: FGFR/β-Klotho receptor complex
Glucagon receptor [3] = target: Glucagon receptor
human GLP-1 receptor [4] = target: T1, human GLP-1 receptor; remark: listed apart in the source
Glucagon receptor [5] = target: Glucagon receptor; remark: listed apart in the source
human GLP-1 receptor [6] = target: T1, human GLP-1 receptor; remark: listed apart in the source
Glucagon receptor [7] = target: Glucagon receptor; remark: listed apart in the source

Row | Binder | GLP-1R agonist activity EC50 (luciferase reporter) (human GLP-1 receptor [1]) [nM] | FGF21 activity EC50 (luciferase reporter) [2] [nM] | GCGR agonist activity EC50 (luciferase reporter) (Glucagon receptor [3]) [nM] | GLP-1R agonist activity EC50 (luciferase reporter) (human GLP-1 receptor [6]) [nM] | GCGR agonist activity EC50 (luciferase reporter) (Glucagon receptor [7]) [nM] | also measured
1 | C353 L13F3L10M4 (Fc fusion) HSQGTFTSDYSKYLDEQAAQDFVQWLMNGPSSGAPPSGGGGSGGGGSGGGGSA[human IgG1 Fc with changes omitted here]GGGGAGGGGAGGGGAHPIPDSSPLLQFGGQVRQRYLYTDDAQQTEAHLEIREDGTVGGAADQSPESLLQLKALKPGVIQILGVKTSRFLCQRPDGALYGSLHFDPEACSFRERLLEDGYNVYQSEAHGLPLHCPGNKSPHRDPAPRGPCRFLPLPGLPPALPEPPGILAPQPPDVGSSDPLAMVGGSQGRSPSYES | 1.36 | 1.67 | 1.11 | – | – | –
2 | C743 L18F7L8M10 (Fc fusion) HSQGTFTSDYSKYLDSQEAQDFVQWLMNTKRNRNNIAGSGGGGSGGGGSGGGGSGGGGS[human IgG4 Fc with S228P N297A (EU numbers) omitted here]GGSGGGAGGGGSDSSPLLQFGGQVRQRYLYTDDAQQTEAHLEIREDGTVGGAADQSPESLLQLKALKPGVIQILGVKTSRFLCQRPDGALYGSLHFDPEACSFRERLLEDGYNVYQSEAHGLPLHCPGNKSPHRDPAPRGPCRFLPLPGLPPALPEPPGILAPQPPDVGSSDPLAMVGGSQGRSPSYAS | 6.67 | 1.36 | 7.34 | – | – | –
3 | F9L10W (Fc fusion) [human IgG4 Fc with S228P F234A L235A (EU numbers) omitted here]GGGGAGGGGAGGGGAHPIPDSSPLLQFGGQVRQRYLYTDDAQQTEAHLEIREDGTVGGAADQSPESLLQLKALKPGVIQILGVKTSRFLCQRPDGALYGSLHFDPEACSFRELLLEDGYNVYQSEAHGLPLHLPGNKSPHRDPAPRGPARFLPLPGLPPALPEPPGILAPQPPDVGSSDPLSMVGPSQGRSPSYAS | – | 0.48 | – | – | – | –
4 | F9L10M2 (Fc fusion) [human IgG4 Fc with S228P F234A L235A (EU numbers) omitted here]GGGGAGGGGAGGGGAHPIPDSSPLLQFGGQVRQRYLYTDDAQQTEAHLEIREDGTVGGAADQSPESLLQLKALKPGVIQILGVKTSRFLCQRPDGALYGSLHFDPEACSFRERLLEDGYNVYQSEAHGLPLHCPGNKSPHRDPAPRGPCRFLPLPGLPPALPEPPGILAPQPPDVGSSDPLSMVGGSQGRSPSYES | – | 0.71 | – | – | – | –
5 | C503 L15F2L9M5 (Fc fusion) HSQGTFTSDYSKYLEEEAVRLFIQWLMNTGSGGGGSGGGGSGGGGS[human IgG1 Fc with changes omitted here]GGGSGGGGSGGGGSHPIPDSSPLLQFGGQVRQRYLYTDDAQQTEAHLEIREDGTVGGAEDQSPESLLQLKALKPGVIQILGVKTSRFLCQRPDGALYGSLHFDPEACSFRERLLEDGYNVYQSEAHGLPLHCPGNKSPHRDPAPRGPCRFLPLPGLPPALPEPPGILAPQPPDVGSSDPLSMVGGSQGRSPSYES | 4.36 | 0.91 | 3.24 | – | – | –
6 | C498L13F4 (Fc fusion) HSQGTFTSDYSEYLDSERARDFVAWLEAGGGGGGSGGGGSGGGGSA[human IgG1 Fc with changes omitted here] | – | – | – | – | – | GLP-1R agonist activity EC50 (luciferase reporter) (human GLP-1 receptor [4]): 2.01 nM; GCGR agonist activity EC50 (luciferase reporter) (Glucagon receptor [5]): 1.88 nM
7 | C756 L20F4L10M8 (Fc fusion) HSQGTFTSDYSKYLDEQAAQDFVQWLMNTKRNRNNIAGGGGSGGGGSGGGGSGGGGSGGGGSA[human IgG1 Fc with changes omitted here]GGGAGGGGAGGGGAHPIPDSSPLLQFGGQVRQRYLYTDDAQQTEAHLEIREDGTVGGAADQSPESLLQLKALKPGVIQILGVKTSRFLCQRPDGALYGSLHFDPEACSFRERLLEDGYNVYQSEAHGLPLHLPGNKSPHRDPAPRGPARFLPLPGLPPALPEPPGILAPQPPDVGSSDPLSMVGGSQGRSPSAAS | 8.82 | 0.96 | 6.49 | – | – | –
8 | C503L15F2 (Fc fusion) HSQGTFTSDYSKYLEEEAVRLFIQWLMNTGSGGGGSGGGGSGGGGS[human IgG1 Fc with changes omitted here] | – | – | – | – | – | GLP-1R agonist activity EC50 (luciferase reporter) (human GLP-1 receptor [4]): 2.13 nM; GCGR agonist activity EC50 (luciferase reporter) (Glucagon receptor [5]): 1.78 nM
9 | C731 L5F2L9M9 (Fc fusion) HSQGTFTSDLSKQMDSRAAQDFIEWLKNTKRNRNNIAGGGGSGGGGS[human IgG1 Fc with changes omitted here]GGGSGGGGSGGGGSHPIPDSSPLLQFGGQVRQRYLYTDDAQQTEAHLEIREDGTVGGAADQSPESLLQLKALKPGVIQILGVKTSRFLCQRPDGALYGSLHFDPEACSFRERLLEDGYNVYQSEAHGLPLHCPGNKSPHRDPAPRGPCRFLPLPGLPPALPEPPGILAPQPPDVGSSDPLAMVGGSQGRSPSYAS | 9.65 | 1.08 | 6.57 | – | – | –
10 | C708 L10F4L14M7 (Fc fusion) HSQGTFTSDYSKYLDSEAAQDFVQWLMNTKRNRNNIAGGGGAGGGGAGGGGA[human IgG1 Fc with changes omitted here]GGGAGGGGAGGGGASHPIPDSSPLLQFGGQVRQEYLYTDDAQQTEAHLEIREDGTVGGAADQSPESLLQLKALKPGVIQILGVKTSRFLCQRPDGALYGSLHFDPEACSFRERLLEDGYNVYQSEAHGLPLHLPGNKSPHRDPAPRGPARFLPLPGLPPALPEPPGILAPQPPDVGSSDPLSMVGGSQGRSPSYES | 9.56 | 1.67 | 5.61 | – | – | –
11 | C001L13F8 (Fc fusion) HSQGTFTSDYSKYLDSRRAQDFVQWLMNTGGGGSGGGGSGGGGSA[human IgG4 Fc with S228P N297A (EU numbers) omitted here] | – | – | – | 380 | 7.98 | –
12 | C308L13F8 (Fc fusion) HSQGTFTSDYSKYLDEQAAQDFVQWLMNTGGGGSGGGGSGGGGSA[human IgG4 Fc with S228P N297A (EU numbers) omitted here] | – | – | – | 409 | 1.09 | –
13 | C303L13F8 (Fc fusion) HSQGTFTSDYSKYLDEEAAQDFVQWLMNTGGGGSGGGGSGGGGSA[human IgG4 Fc with S228P N297A (EU numbers) omitted here] | – | – | – | 389 | 1.03 | –
14 | C214L13F8 (Fc fusion) HSQGTFTSDYSKYLDSQAAQDFVQWLMNTGGGGSGGGGSGGGGSA[human IgG4 Fc with S228P N297A (EU numbers) omitted here] | – | – | – | 438 | 0.97 | –
15 | CG267L13F8 (Fc fusion) HSQGTFTSDYSKYLDSRAAQDFVQWLMNGGGGGSGGGGSGGGGSA[human IgG4 Fc with S228P N297A (EU numbers) omitted here] | – | – | – | 361 | 1.15 | –
16 | CG283L13F8 (Fc fusion) HSQGTFTSDYSKYLDERAAQDFVQWLMNGGGGGSGGGGSGGGGSA[human IgG4 Fc with S228P N297A (EU numbers) omitted here] | – | – | – | 330 | 1.24 | –
17 | CG214L13F8 (Fc fusion) HSQGTFTSDYSKYLDSQAAQDFVQWLMNGGGGGSGGGGSGGGGSA[human IgG4 Fc with S228P N297A (EU numbers) omitted here] | – | – | – | 360 | 1.12 | –
18 | CG308L13F8 (Fc fusion) HSQGTFTSDYSKYLDEQAAQDFVQWLMNGGGGGSGGGGSGGGGSA[human IgG4 Fc with S228P N297A (EU numbers) omitted here] | – | – | – | 350 | 1.16 | –
19 | CG303L13F8 (Fc fusion) HSQGTFTSDYSKYLDEEAAQDFVQWLMNGGGGGSGGGGSGGGGSA[human IgG4 Fc with S228P N297A (EU numbers) omitted here] | – | – | – | 452 | 1.19 | –
20 | C319L13F8 (Fc fusion) HSQGTFTSDYSKYLDGQAAQDFVQWLMNGGGGGSGGGGSGGGGSA[human IgG4 Fc with S228P N297A (EU numbers) omitted here] | – | – | – | 378 | 1.44 | –
21 | C224L13F8 (Fc fusion) HSQGTFTSDYSKYLDERAAQDFVQWLMNTGGGGSGGGGSGGGGSA[human IgG4 Fc with S228P N297A (EU numbers) omitted here] | – | – | – | 335 | 1.11 | –
22 | C498 L13F4L13M4 (Fc fusion) HSQGTFTSDYSEYLDSERARDFVAWLEAGGGGGGSGGGGSGGGGSA[human IgG1 Fc with changes omitted here]GGGSGGGGSGGGGSAHPIPDSSPLLQFGGQVRQRYLYTDDAQQTEAHLEIREDGTVGGAADQSPESLLQLKALKPGVIQILGVKTSRFLCQRPDGALYGSLHFDPEACSFRERLLEDGYNVYQSEAHGLPLHCPGNKSPHRDPAPRGPCRFLPLPGLPPALPEPPGILAPQPPDVGSSDPLAMVGGSQGRSPSYES | 2.28 | 0.83 | 2.3 | – | – | –
